# Results taken from the supplement of paper PMC8728848.
# This is one part of the list.
# B1: Gal 2 (Canis lupus) (protein)
# chain: MSGKFEVMNMDMKLGGTLKIKGKIAGDADGFVINLGQGSDKLNLHFNPRFHESVIVCNSRNWGQEQRDKHMCFSPGSEVKFTVTFENDGFKVKLPDGHQLTFPNRLGHSHLSYLGVQGGLKVSSFKIE
# Tests used:
# Assay in all cases: glycan array binding signal (z-score within array); higher = stronger binding
# Details in all cases: glycan notation: IUPAC condensed, linker removed
# [1] = biological target: Fuc(a1-2)Gal(b1-4)[Fuc(a1-3)]GlcNAc(b1-2)[Fuc(a1-2)Gal(b1-4)[Fuc(a1-3)]GlcNAc(b1-4)]Man(a1-3)[Fuc(a1-2)Gal(b1-4)[Fuc(a1-3)]GlcNAc(b1-2)Man(a1-6)]Man(b1-4)GlcNAc(b1-4)GlcNAc
# How it was run: (§1)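 The Consortium for Functional Glycomics database supplied 3228 glycan arrays, of which those lacking an available protein sequence were dropped. The binding signal, a within-array Z-score, was averaged across arrays of the same protein sequence and across linkers. Negative scores can be read as non-binding.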
# [2] = biological target: Fuc(a1-2)Gal(b1-4)[Fuc(a1-3)]GlcNAc(b1-3)Gal(b1-4)[Fuc(a1-3)]GlcNAc
# How it was run: as §1
# [3] = biological target: Fuc(a1-2)Gal(b1-4)[Fuc(a1-3)]GlcNAc(b1-3)Gal(b1-4)[Fuc(a1-3)]GlcNAc(b1-3)Gal(b1-4)[Fuc(a1-3)]GlcNAc
# How it was run: as §1
# [4] = biological target: Fuc(a1-2)Gal(b1-4)[Fuc(a1-3)]GlcNAc(b1-3)GalNAc
# How it was run: as §1
# Fuc(a1-2)Gal6S(b1-4)Glc = biological target: Fuc(a1-2)Gal6S(b1-4)Glc
# How it was run: as §1
# [5] = biological target: Fuc(a1-2)Gal6S(b1-4)Glc6S
# How it was run: as §1
# [6] = biological target: Fuc(a1-2)Gal6S(b1-4)GlcNAc
# How it was run: as §1
# Fuc(a1-2)[Gal(a1-3)]Gal = biological target: Fuc(a1-2)[Gal(a1-3)]Gal
# How it was run: as §1
# [7] = biological target: Fuc(a1-2)[Gal(a1-3)]Gal(b1-3)GlcNAc
# How it was run: as §1
# [8] = biological target: Fuc(a1-2)[Gal(a1-3)]Gal(b1-3)GlcNAc(b1-2)Man(a1-3)[Fuc(a1-2)[Gal(a1-3)]Gal(b1-3)GlcNAc(b1-2)Man(a1-6)]Man(b1-4)GlcNAc(b1-4)GlcNAc
# How it was run: as §1
# [9] = biological target: Fuc(a1-2)[Gal(a1-3)]Gal(b1-3)GlcNAc(b1-3)GalNAc
# How it was run: as §1
# [10] = biological target: Fuc(a1-2)[Gal(a1-3)]Gal(b1-4)Glc
# How it was run: as §1
# [11] = biological target: Fuc(a1-2)[Gal(a1-3)]Gal(b1-4)GlcNAc
# How it was run: as §1
# [12] = biological target: Fuc(a1-2)[Gal(a1-3)]Gal(b1-4)GlcNAc(b1-2)Man(a1-3)[Fuc(a1-2)[Gal(a1-3)]Gal(b1-4)GlcNAc(b1-2)Man(a1-6)]Man(b1-4)GlcNAc(b1-4)GlcNAc
# How it was run: as §1
# [13] = biological target: Fuc(a1-2)[Gal(a1-3)]Gal(b1-4)GlcNAc(b1-2)Man(a1-3)[Fuc(a1-2)[Gal(a1-3)]Gal(b1-4)GlcNAc(b1-2)Man(a1-6)]Man(b1-4)GlcNAc(b1-4)[Fuc(a1-6)]GlcNAc
# How it was run: as §1
# [14] = biological target: Fuc(a1-2)[Gal(a1-3)]Gal(b1-4)GlcNAc(b1-3)GalNAc
# How it was run: as §1
# [15] = biological target: Fuc(a1-2)[Gal(a1-3)]Gal(b1-4)[Fuc(a1-3)]Glc
# How it was run: as §1
# [16] = biological target: Fuc(a1-2)[Gal(a1-3)]Gal(b1-4)[Fuc(a1-3)]GlcNAc
# How it was run: as §1
# [17] = biological target: Fuc(a1-2)[Gal(a1-3)]Gal(b1-4)[Fuc(a1-3)]GlcNAc(b1-3)GalNAc
# How it was run: as §1
# [18] = biological target: Fuc(a1-2)[Gal(a1-4)]Gal(b1-4)GlcNAc
# How it was run: as §1
# [19] = biological target: Fuc(a1-2)[GalNAc(a1-3)]Gal
# How it was run: as §1
# [20] = biological target: Fuc(a1-2)[GalNAc(a1-3)]Gal(b1-3)GalNAc(a1-3)[Fuc(a1-2)]Gal(b1-4)GlcNAc
# How it was run: as §1
# [21] = biological target: Fuc(a1-2)[GalNAc(a1-3)]Gal(b1-3)GlcNAc
# How it was run: as §1
# [22] = biological target: Fuc(a1-2)[GalNAc(a1-3)]Gal(b1-3)GlcNAc(b1-2)Man(a1-3)[Fuc(a1-2)[GalNAc(a1-3)]Gal(b1-3)GlcNAc(b1-2)Man(a1-6)]Man(b1-4)GlcNAc(b1-4)GlcNAc
# How it was run: as §1
# [23] = biological target: Fuc(a1-2)[GalNAc(a1-3)]Gal(b1-3)GlcNAc(b1-3)GalNAc
# How it was run: as §1
# [24] = biological target: Fuc(a1-2)[GalNAc(a1-3)]Gal(b1-4)Glc
# How it was run: as §1
# [25] = biological target: Fuc(a1-2)[GalNAc(a1-3)]Gal(b1-4)GlcNAc
# How it was run: as §1
# [26] = biological target: Fuc(a1-2)[GalNAc(a1-3)]Gal(b1-4)GlcNAc(b1-2)Man(a1-3)[Fuc(a1-2)[GalNAc(a1-3)]Gal(b1-4)GlcNAc(b1-2)Man(a1-6)]Man(b1-4)GlcNAc(b1-4)GlcNAc
# How it was run: as §1
# [27] = biological target: Fuc(a1-2)[GalNAc(a1-3)]Gal(b1-4)GlcNAc(b1-3)Gal(b1-4)GlcNAc
# How it was run: as §1
# [28] = biological target: Fuc(a1-2)[GalNAc(a1-3)]Gal(b1-4)GlcNAc(b1-3)Gal(b1-4)GlcNAc(b1-3)Gal(b1-4)GlcNAc
# How it was run: as §1
# [29] = biological target: Fuc(a1-2)[GalNAc(a1-3)]Gal(b1-4)GlcNAc(b1-3)GalNAc
# How it was run: as §1
# [30] = biological target: Fuc(a1-2)[GalNAc(a1-3)]Gal(b1-4)[Fuc(a1-3)]GlcNAc
# How it was run: as §1
# [31] = biological target: Fuc(a1-2)[GalNAc(a1-3)]Gal(b1-4)[Fuc(a1-3)]GlcNAc(b1-3)GalNAc
# How it was run: as §1
# [32] = biological target: Fuc(a1-2)[GalNAc(a1-4)]Gal(b1-4)GlcNAc
# How it was run: as §1
# [33] = biological target: Fuc(a1-2)[GalNAc(b1-3)]Gal
# How it was run: as §1
# Fuc(a1-3)GlcNAc = biological target: Fuc(a1-3)GlcNAc
# How it was run: as §1
# [34] = biological target: Fuc(a1-3)[Gal(b1-4)]Glc6S
# How it was run: as §1
# [35] = biological target: Fuc(a1-3)[Gal(b1-4)]GlcNAc
# How it was run: as §1
# [36] = biological target: Fuc(a1-3)[Gal(b1-4)]GlcNAc(b1-2)Man(a1-3)[Fuc(a1-3)[Gal(b1-4)]GlcNAc(b1-2)Man(a1-6)]Man(b1-4)GlcNAc(b1-4)GlcNAc
# How it was run: as §1
# [37] = biological target: Fuc(a1-3)[Gal(b1-4)]GlcNAc(b1-2)Man(a1-3)[Fuc(a1-3)[Gal(b1-4)]GlcNAc(b1-2)Man(a1-6)]Man(b1-4)GlcNAc(b1-4)[Fuc(a1-6)]GlcNAc
# How it was run: as §1
# [38] = biological target: Fuc(a1-3)[Gal(b1-4)]GlcNAc(b1-3)Gal(b1-3)[Fuc(a1-4)]GlcNAc
# How it was run: as §1
# [39] = biological target: Fuc(a1-3)[Gal(b1-4)]GlcNAc(b1-3)GalNAc
# How it was run: as §1
# [40] = biological target: Fuc(a1-3)[Gal(b1-4)]GlcNAc(b1-4)Gal(b1-4)[Fuc(a1-3)]GlcNAc
# How it was run: as §1
# [41] = biological target: Fuc(a1-3)[Gal(b1-4)]GlcNAc(b1-4)Gal(b1-4)[Fuc(a1-3)]GlcNAc(b1-4)Gal(b1-4)[Fuc(a1-3)]GlcNAc
# How it was run: as §1
# [42] = biological target: Fuc(a1-3)[Gal(b1-4)]GlcNAc(b1-6)[Gal(b1-3)GlcNAc(b1-3)]Gal(b1-4)Glc
# How it was run: as §1
binder,measurement,setting,value
B1,glycan array binding signal (z-score),[1],0.249
same,glycan array binding signal (z-score),[2],-0.225
same,glycan array binding signal (z-score),[3],-0.218
same,glycan array binding signal (z-score),[4],0.409
same,glycan array binding signal (z-score),Fuc(a1-2)Gal6S(b1-4)Glc,-0.473
same,glycan array binding signal (z-score),[5],-0.002
same,glycan array binding signal (z-score),[6],-0.268
same,glycan array binding signal (z-score),Fuc(a1-2)[Gal(a1-3)]Gal,-0.164
same,glycan array binding signal (z-score),[7],-0.127
same,glycan array binding signal (z-score),[8],0.077
same,glycan array binding signal (z-score),[9],-0.08
same,glycan array binding signal (z-score),[10],-0.096
same,glycan array binding signal (z-score),[11],0.681
same,glycan array binding signal (z-score),[12],15.5
same,glycan array binding signal (z-score),[13],6.28
same,glycan array binding signal (z-score),[14],-0.25
same,glycan array binding signal (z-score),[15],0.003
same,glycan array binding signal (z-score),[16],-0.049
same,glycan array binding signal (z-score),[17],0.088
same,glycan array binding signal (z-score),[18],0.295
same,glycan array binding signal (z-score),[19],-0.339
same,glycan array binding signal (z-score),[20],-0.173
same,glycan array binding signal (z-score),[21],-0.019
same,glycan array binding signal (z-score),[22],-0.046
same,glycan array binding signal (z-score),[23],-0.073
same,glycan array binding signal (z-score),[24],0.159
same,glycan array binding signal (z-score),[25],-0.266
same,glycan array binding signal (z-score),[26],0.616
same,glycan array binding signal (z-score),[27],0.053
same,glycan array binding signal (z-score),[28],0.067
same,glycan array binding signal (z-score),[29],-0.214
same,glycan array binding signal (z-score),[30],-0.065
same,glycan array binding signal (z-score),[31],-0.296
same,glycan array binding signal (z-score),[32],0.039
same,glycan array binding signal (z-score),[33],-0.13
same,glycan array binding signal (z-score),Fuc(a1-3)GlcNAc,-0.006
same,glycan array binding signal (z-score),[34],-0.281
same,glycan array binding signal (z-score),[35],0.078
same,glycan array binding signal (z-score),[36],0.204
same,glycan array binding signal (z-score),[37],0.344
same,glycan array binding signal (z-score),[38],-0.261
same,glycan array binding signal (z-score),[39],-0.395
same,glycan array binding signal (z-score),[40],0.043
same,glycan array binding signal (z-score),[41],-0.23
same,glycan array binding signal (z-score),[42],-0.17
